Hit rate of the full screen: of about 390,000 compounds, about 17,000 (4.4%) were called active. Inconclusive means that the source gave no clear call. Such entries were picked first, then a sample of the others. The call rests on the fitted dose curve; in most records, active means well fitted inhibition curve with a large enough effect; inconclusive means small, poorly fitted or top-dose-only effect; inactive means no such curve, though single readings can be large or run the other way. Potencies of inconclusive entries are doubtful fits and often do not repeat.
target: Lysine-specific demethylase 4A (Homo sapiens) (UniProt O75164); test: qHTS Assay for Inhibitors of JMJD2A-Tudor Domain; conditions: AlphaScreen JMJD2A-Tudor / H3K4me3 peptide binding; activity change, negative = inhibition: at 114 µM (top of the series); further: nearly all actives have a fitted effect of over 50% in size
On the % scale 0 is the no-effect control and ±100 the full control effect; potency means the concentration at half of the fitted maximal effect; tags describe the fitted curve by direction and shape.

Chain of UniProt O75164 (O75164 whole entry, looked up, the tested form may be a part): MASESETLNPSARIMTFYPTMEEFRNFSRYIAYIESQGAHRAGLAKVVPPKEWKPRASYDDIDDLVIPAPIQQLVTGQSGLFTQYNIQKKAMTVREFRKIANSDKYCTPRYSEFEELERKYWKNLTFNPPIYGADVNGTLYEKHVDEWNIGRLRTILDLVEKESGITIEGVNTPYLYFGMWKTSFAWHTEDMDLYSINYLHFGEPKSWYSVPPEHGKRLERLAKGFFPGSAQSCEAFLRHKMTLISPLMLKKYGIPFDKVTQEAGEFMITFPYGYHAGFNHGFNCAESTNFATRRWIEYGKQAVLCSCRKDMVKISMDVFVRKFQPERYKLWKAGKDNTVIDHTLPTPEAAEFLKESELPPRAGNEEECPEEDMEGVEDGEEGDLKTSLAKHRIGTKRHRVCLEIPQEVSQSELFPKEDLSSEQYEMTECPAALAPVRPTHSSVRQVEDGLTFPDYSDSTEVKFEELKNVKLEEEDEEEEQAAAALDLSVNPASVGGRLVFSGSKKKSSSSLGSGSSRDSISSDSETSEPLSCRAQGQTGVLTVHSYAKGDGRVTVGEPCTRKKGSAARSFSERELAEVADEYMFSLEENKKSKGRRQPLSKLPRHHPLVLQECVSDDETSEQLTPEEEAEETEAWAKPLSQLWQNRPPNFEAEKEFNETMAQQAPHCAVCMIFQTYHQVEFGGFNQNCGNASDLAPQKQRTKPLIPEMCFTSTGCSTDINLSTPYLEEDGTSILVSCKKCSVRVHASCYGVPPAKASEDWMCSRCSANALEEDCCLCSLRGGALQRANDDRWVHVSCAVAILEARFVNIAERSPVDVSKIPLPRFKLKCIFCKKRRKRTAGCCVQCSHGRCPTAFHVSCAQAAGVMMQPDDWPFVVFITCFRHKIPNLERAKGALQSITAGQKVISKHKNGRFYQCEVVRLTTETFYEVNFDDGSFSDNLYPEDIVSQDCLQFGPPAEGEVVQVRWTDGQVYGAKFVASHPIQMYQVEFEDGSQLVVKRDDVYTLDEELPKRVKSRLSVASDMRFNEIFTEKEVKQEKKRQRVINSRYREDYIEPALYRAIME

Potency, inconclusive:
CCc1ccc(NC(=O)C(C)Sc2nc(-c3ccco3)c(C#N)c(=O)[nH]2)cc1 (centres undefined) 31.6 µM [inhibitor, full curve, poor fit], CCCCC(=O)NC(c1ccc(Cl)cc1Cl)c1ccc2cccnc2c1O (centres undefined) 12.6 µM [inhibitor, full curve], Cc1ccc(C)c(N2CCN(C(=O)C3CCN(C(=O)c4cc5sccc5n4C)CC3)CC2)c1 22.4 µM [inhibitor, full curve], Cc1cc(C)c(Cc2c(C)nc3c(C(=O)NCc4ccco4)cnn3c2C)c(C)c1 56.2 µM [inhibitor, partial curve], Cc1ccc(CN2CCN(/N=C/c3cc(Br)cc(Br)c3O)CC2)cc1 31.6 µM [inhibitor, single point], CCCCN(C)S(=O)(=O)c1ccc(C(=O)N(CCN(C)C)c2nc3ccc(C)cc3s2)cc1 31.6 µM [inhibitor, full curve], Cc1[nH]c2ccc(C(=O)Nc3ccc(F)cc3)cc2c1C 63.1 µM [inhibitor, partial curve, poor fit], Clc1ccccc1C(c1nnnn1Cc1ccco1)N1CCN(Cc2ccco2)CC1 (centres undefined) 79.4 µM [inhibitor, single point], Cc1ccc(NC(=S)NCc2ccccn2)cc1 70.8 µM [inhibitor, partial curve], Cc1ccc(-c2nc(CN(C)C)cc(CN(C)C)c2O)cc1 89.1 µM [inhibitor, single point], O=c1c([N+](=O)[O-])c(NCCN2CCCCCC2)c2ccccc2n1-c1ccccc1 20 µM [inhibitor, partial curve], CCN1c2ccccc2NC2C1C(C(C)=O)C(=O)N2c1ccc(Cl)cc1 (centres undefined) 56.2 µM [inhibitor, partial curve], CN1c2ccsc2C(O)=C(C(=S)Nc2ccccc2)S1(=O)=O 79.4 µM [inhibitor, single point], CCCc1nnc(SCC(=O)O)n1/N=C/c1ccc2c(c1)OCO2 89.1 µM [inhibitor, single point], Cc1oc(-c2ccccc2F)nc1CS(=O)(=O)CC(=O)N1CCN(c2ccc(Cl)cc2)CC1 44.7 µM [inhibitor, full curve, poor fit], CC(=O)Cc1nsc(NC(=O)c2ccc(Cl)cc2Cl)n1 39.8 µM [inhibitor, single point], O=[N+]([O-])c1cccc2c(S(=O)(=O)N3CCCCC3)cccc12 56.2 µM [inhibitor, partial curve], CC(C)C(=O)Nc1cc2c3c(c1)CCC(=O)N3CCC2 79.4 µM [inhibitor, partial curve], O=C1OCCN/C1=C\C(=O)c1ccc(Cl)cc1 39.8 µM [inhibitor, single point], Cc1ccc(N2CC(NC(=O)c3ccco3)CC2=O)cc1 (centres undefined) 56.2 µM [inhibitor, partial curve], CCn1cc(CCCC(=O)NCc2cccc(OC)c2)c2ccccc21 44.7 µM [inhibitor, partial curve], O=C(NCCCn1ccnc1)/C(=C/c1ccco1)NC(=O)c1ccco1 44.7 µM [inhibitor, partial curve, poor fit], CC(=O)Nc1ccc(Sc2ccccc2C(=O)Nc2ccc(F)cc2)cn1 5.01 µM [inhibitor, single point], CC(C)=CCC/C(C)=C/CNC(=O)CC1C[C@H](C(=O)N(C(C)C)C(C)C)[C@@]2(C)c3[nH]c4ccccc4c3CCN2C1=O (some centres undefined) 22.4 µM [inhibitor, full curve], COc1ccc(C(=O)/C=C2\NCCc3cc(OC)c(OC)cc32)cc1OC 56.2 µM [inhibitor, partial curve], CCc1ccc(C(=O)COC(=O)c2cc([N+](=O)[O-])ccc2N2CCOCC2)cc1 1.58 µM [inhibitor, full curve, poor fit], Fc1ccccc1Cn1cc(C(=S)N2CCOCC2)c2ccccc21 50.1 µM [inhibitor, partial curve], CS(=O)(=O)C1=NSC2=NC(=O)/C(=C\c3ccc(OS(=O)(=O)c4ccccc4)cc3)C(=N)N21 22.4 µM [inhibitor, full curve], COc1ccc(C(=O)c2cnc3ccc(C)cc3c2S(=O)(=O)c2ccccc2)cc1 2.51 µM [inhibitor, full curve, poor fit], Cc1cccn2c(=O)c(/C=C(\C#N)C(=O)NCc3ccco3)c(N3CCCCC3)nc12 14.1 µM [inhibitor, full curve, poor fit], Cc1sc2nc(N)sc2c1C 5.62 µM [inhibitor, full curve, poor fit], O=C(/C=C/c1ccc2c(c1)OCCCO2)c1ccccc1O 25.1 µM [inhibitor, single point], O=C1Cc2ccccc2C(=O)N1OCc1ccc(Cl)cc1 89.1 µM [inhibitor, single point], CCC(C)Nc1nc(-c2cccc(OC)c2O)nc2ccccc12 (centres undefined) 50.1 µM [inhibitor, partial curve], O=C(O/N=C\c1ccc(N2CCCCC2)c([N+](=O)[O-])c1)c1c(F)cccc1F 8.91 µM [inhibitor, full curve], CN1CCN(c2oc(-c3ccccc3Cl)nc2S(=O)(=O)c2ccccc2)CC1 56.2 µM [inhibitor, partial curve], COc1ccc(OC)c(C2=NS(=O)(=O)N(C)C(C(=O)Nc3ccc(C(C)=O)cc3)=C2)c1 20 µM [inhibitor, full curve], O=C(COc1ccccc1Cl)N1CCN(c2ccc([N+](=O)[O-])c(N3CCCCC3)c2)CC1 25.1 µM [inhibitor, partial curve], O=C(Nc1ccc(N2CCCC2)cc1)c1cccc(Cl)c1 3.98 µM [inhibitor, full curve, poor fit], COc1ccc(CCNc2ccc(C(CC(N)=O)NC(=O)c3cc(C)cc(C)c3)cc2[N+](=O)[O-])cc1 (centres undefined) 35.5 µM [inhibitor, partial curve], O=C(CSc1ccccc1)N1CCc2c([nH]c3ccccc23)C1c1ccc(Cl)cc1 (centres undefined) 50.1 µM [inhibitor, partial curve]

Potency, active:
COc1ccc(S(=O)(=O)N2CCC(C(=O)N[C@@H](C)C(=O)NC3CCCC3)CC2)cc1 22.4 µM, N#Cc1c(N)sc2c1CCN(C(=O)OCc1ccccc1)C2 56.2 µM, COc1ccc(Br)cc1/C=C(\C(=O)O)c1ccc(S(=O)(=O)N2CCCC2)s1 89.1 µM, CC(C)c1cc(C(=O)O)n[nH]1 28.2 µM, Cc1ccc(CN2C(=O)C(O)(CC(=O)c3ccc(C)cc3)c3ccccc32)cc1 (centres undefined) 50.1 µM, Cn1cnnc1SCC(=O)c1cc2ccccc2oc1=O 89.1 µM, O=C(/C=C/c1ccc(Cl)cc1)NC(=S)Nc1ccc(C(=O)O)cc1 22.4 µM, Cc1nc(Nc2nc3ccccc3o2)nc2c1CCC2 10 µM, O=C(NNS(=O)(=O)c1ccc([N+](=O)[O-])cc1)c1ccc([N+](=O)[O-])cc1 1.26 µM, CS(=O)(=O)C1=C(O)C(=O)N(CCCC(=O)O)C1c1ccccc1F (centres undefined) 50.1 µM, COc1ccc(C(=O)/C=C/c2ccc(OCc3ccccc3)cc2)cc1CSCC(=O)O 56.2 µM, O=C(CN1CCCCCCC1)N/N=C/c1ccccc1F 70.8 µM

Activity change, negative = inhibition, inactive:
CC(=O)OCC(NC(=O)C1CCCN1C(=O)OC(C)(C)C)C1OC(n2ccc(=O)[nH]c2=O)C(OC(C)=O)C1OC(C)=O (centres undefined) -8.97%, O=C(c1ccc2c(c1)N(Cc1ccc(Cl)cc1)C(=O)c1ccccc1S2(=O)=O)N1CCC(Cc2ccccc2)CC1 -20.2%, Cn1cc(CN2CCc3c([nH]c4ccccc34)C2C2CCCCC2)cn1 (centres undefined) -16.5% [at 57.1 µM], Cc1ccc(NC(=O)CN(C)S(=O)(=O)c2ccc3[nH]c(=O)oc3c2)c(C)c1 -13.5%, O=C(c1ccc2c(c1)N(Cc1ccc(F)cc1)C(=O)c1ccccc1S2(=O)=O)N1CCCCCC1 -19.9%, O=c1[nH]nc(Cc2ccccc2)c2ccccc12 -3.79%, CCOc1ccc(-c2nnc(SCC(=O)NCc3ccc(Cl)cc3)o2)cc1 -10.6%, O=C(CCNC(=O)c1ccc(Cl)cc1)Nc1ccc(S(=O)(=O)N2CCCCC2)cc1 5.5%, COc1ccc(S(=O)(=O)N2CCC(C(=O)NC(C)c3ccccc3)CC2)cc1 (centres undefined) -1.38%, CCC(C)c1ccc(NC(=S)Nc2ccc(OC)cc2C)cc1 (centres undefined) -25.7%, CCNC(=O)C1CCN(c2nc3ccccc3nc2C(F)(F)F)CC1 1.95%, O=C(CCc1c[nH]c2ccccc12)NCCc1ccc(O)cc1 -23.3%, COC(=O)CCc1c(C)nc(N)[nH]c1=O 10%, Clc1ccc(-c2csc(-c3ccno3)n2)cc1 11%, O=C(Cn1ccc(=O)[nH]c1=O)Nc1ccc(O)c([N+](=O)[O-])c1 -15.9%, COc1cccc(C(=O)c2cn(CC(=O)Nc3cc(Cl)c(OC)cc3OC)c3nc(C)ccc3c2=O)c1 -14.6%

From PubChem BioAssay AID504339 (National Center for Advancing Translational Sciences (NCATS), 2011)
